Results as given in publication PMC4336329 (PLoS ONE, 2015).
Out of some 310,000 compounds screened, about 14,000 (4.5%) showed an effect of 50% or more. Effects have a minus sign here. The list shows a part of the results.

Biological target: human ether-à-go-go-related gene (hERG) potassium channel (human, UniProt Q12809)
Test: primary screen, population patch clamp on CHO cells stably expressing hERG
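Further: peak tail current of the secondary pulse compared with the same well before compound.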

Chain of human ether-à-go-go-related gene (hERG) potassium channel (Q12809 whole entry, looked up): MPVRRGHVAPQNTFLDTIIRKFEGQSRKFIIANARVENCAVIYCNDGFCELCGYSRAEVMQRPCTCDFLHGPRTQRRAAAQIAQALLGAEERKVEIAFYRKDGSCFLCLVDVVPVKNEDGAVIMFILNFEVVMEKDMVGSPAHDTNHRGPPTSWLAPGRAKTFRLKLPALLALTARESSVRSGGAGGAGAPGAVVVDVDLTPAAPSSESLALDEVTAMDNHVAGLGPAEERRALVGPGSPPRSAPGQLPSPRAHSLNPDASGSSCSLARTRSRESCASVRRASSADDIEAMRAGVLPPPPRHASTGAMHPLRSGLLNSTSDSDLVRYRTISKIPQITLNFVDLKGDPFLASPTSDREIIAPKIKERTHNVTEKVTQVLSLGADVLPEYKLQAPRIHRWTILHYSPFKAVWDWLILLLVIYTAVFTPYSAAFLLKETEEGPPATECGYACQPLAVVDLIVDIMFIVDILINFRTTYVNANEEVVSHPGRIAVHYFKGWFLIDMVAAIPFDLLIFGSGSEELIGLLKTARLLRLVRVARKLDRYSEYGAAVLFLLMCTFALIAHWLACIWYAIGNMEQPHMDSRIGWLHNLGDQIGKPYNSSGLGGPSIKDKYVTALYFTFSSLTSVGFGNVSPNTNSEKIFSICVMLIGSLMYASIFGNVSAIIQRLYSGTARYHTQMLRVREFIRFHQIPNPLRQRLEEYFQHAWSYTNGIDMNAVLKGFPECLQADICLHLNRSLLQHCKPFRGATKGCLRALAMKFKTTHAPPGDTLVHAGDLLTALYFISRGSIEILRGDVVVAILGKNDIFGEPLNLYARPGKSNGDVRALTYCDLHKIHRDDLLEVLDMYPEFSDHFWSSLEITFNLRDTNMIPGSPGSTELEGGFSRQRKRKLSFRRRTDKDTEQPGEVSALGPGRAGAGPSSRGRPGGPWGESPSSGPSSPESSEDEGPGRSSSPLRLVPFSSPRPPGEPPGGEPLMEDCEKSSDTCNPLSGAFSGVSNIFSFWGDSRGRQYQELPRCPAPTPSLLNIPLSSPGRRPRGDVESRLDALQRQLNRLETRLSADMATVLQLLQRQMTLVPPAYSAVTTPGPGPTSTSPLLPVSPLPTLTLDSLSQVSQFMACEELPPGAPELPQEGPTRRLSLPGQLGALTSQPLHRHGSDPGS

Row | Compound | hERG current change (%, negative = inhibition) at 10uM
1 | CC(C)[C@@H](C(=O)N[C@@H](C(=O)O)c1ccccc1)N1C(=O)N2CCc3c([nH]c4ccccc34)[C@@]2(C)C1=O | 3.07%
2 | CN(CC(=O)Nc1ccccc1Cl)CC(=O)N1CCc2ccccc21 | -8.36%
3 | COc1ccc(CNC(=O)CN(C(=O)CCC(=O)Nc2ccccn2)c2ccccc2OC)cc1 | -15.4%
4 | C=C1CCN([C@@H](Cc2ccccc2)C(=O)NCc2ccccc2)S(=O)(=O)c2ccccc21 | -9.46%
5 | Cc1ccc(-n2nc(C)c(C(=O)N3CCN(C(=O)c4ccco4)CC3)c2-n2cccc2)cc1 | -26.1%
6 | CSCCC(NS(=O)(=O)c1ccc(C)cc1)C(=O)Nc1ccc(C)cn1 (stereo not drawn) | 2.68%
7 | CCOC(=O)/C=C1\CN(C(C)c2ccccc2)S(=O)(=O)c2ccccc21 (stereo not drawn) | -6.23%
8 | COc1cc(OC)c(NS(=O)(=O)c2cc3[nH]c(=O)c(=O)[nH]c3cc2C)cc1Cl | 24%
9 | COc1ccccc1/C=C/C=N/n1c(-c2ccccn2)n[nH]c1=S | 14.8%
10 | COc1cc(/C=c2\s/c(=C\C(=O)C(C)(C)C)[nH]c2=O)cc(OC)c1OC | -7.35%
11 | CC1CCCCC1NC(=O)Cn1nc(-c2ccccc2)ccc1=O (stereo not drawn) | -4.3%
12 | CC(C)CNc1nc(Oc2ccc(=O)[nH]n2)nc(N2CCOCC2)n1 | 7.99%
13 | CC(C)N(Cc1cc2ccccc2[nH]c1=O)C(=O)C1CCCCC1 | -14.5%
14 | CCCN(C(=O)COC(=O)c1[nH]c(C)c(C(=O)OC)c1C)c1c(N)n(Cc2ccccc2)c(=O)[nH]c1=O | 16.2%
15 | O=C(Cn1cnc(S(=O)(=O)N2CCCCC2)c1)NCc1ccco1 | 8.34%
16 | Cc1cc(C)c2c(=O)n(CC(=O)Nc3cccc(Cl)c3C)sc2n1 | 1.13%
17 | C=C(C)CSc1nnc2[nH]c(=O)cc(N)n12 | 14.7%
18 | c1ccc(P(c2ccccc2)c2ccccn2)cc1 | -40.1%
19 | C[N+](C)(CC#Cc1ccccc1)CC(=O)c1ccccc1.[Br-] | -13.5%
20 | O=c1[nH]ncc2c3ccccc3n(Cc3ccccc3)c12 | 15.8%
21 | Cc1noc(C)c1COC(=O)c1cnc(Cl)c(Cl)c1 | -7.26%

Row | Compound | hERG current change (%, negative = inhibition) at 10uM
22 | O=C(CSc1ncnc2ccccc12)NCc1ccc2c(c1)OCO2 | -16.9%
23 | COc1cc(NC(=O)CN(c2ccc(C)cc2)S(=O)(=O)c2c(C)noc2C)cc(OC)c1 | 16.3%
24 | O=C(O)Cn1nc(-c2ccc(F)cc2)oc1=O | 8.59%
25 | CCC(C(=O)NCc1ccc(C)cc1)c1ccccc1 (stereo not drawn) | -1.35%
26 | CCOc1ccccc1NC(=S)N1CCN(c2nc(-c3ccc(F)cc3)cs2)CC1 | 19.5%
27 | CCCCC(=O)Nc1c2c(nn1-c1ccc(C)cc1)CS(=O)(=O)C2 | -7.52%
28 | CCOc1ccc(CCNC(=O)c2ccc(S(=O)(=O)N3CCCC3)cc2)cc1OCC | -8.47%
29 | O=C(Nc1ccccc1O)c1ccc(NC(=O)C2CC2)cc1 | 9.92%
30 | Cc1c(NC(=O)C2CCN(S(=O)(=O)c3ccccc3)CC2)c(=O)n(-c2ccccc2)n1C | 4.47%
31 | CCN1CCN(C(=O)c2ccccc2NS(=O)(=O)c2ccc(Cl)cc2)CC1.Cl | 0.707%
32 | COc1cc(C=O)ccc1OS(=O)(=O)c1ccccc1[N+](=O)[O-] | 4.1%
33 | CCN(CC)CCCN=Cc1c(O)n(Cc2ccccc2)c(=O)c2ccccc12 | -76.7%
34 | CN(C)Cc1c(C(=O)N/N=C/c2cccc(OCc3c(F)cccc3Cl)c2)nnn1-c1nonc1N | 18.1%
35 | CC1CCN(CCOCCOc2ccc(Br)cc2Cl)CC1.O=C(O)C(=O)O | -75.5%
36 | Cn1cccc1Cc1nnc(SCC(=O)Nc2nccs2)n1CCc1ccccc1 | -9.58%
37 | O=C(C1=C(O)C(=O)N(CC2CCCO2)C1c1cccnc1)c1ccco1 (stereo not drawn) | 7.52%
38 | Cc1cc(C2=NNC(=NCCc3ccccc3)SC2)c(C)n1-c1c(C)n(C)n(-c2ccccc2)c1=O | -1.1%
39 | Cc1ccc(N(C(C)C(=O)Nc2ccc3c(c2)OCO3)S(C)(=O)=O)cc1 (stereo not drawn) | -2.38%
40 | C=CCn1c(O)c(N=Nc2ccccc2C)c2ccccc21 | 4.06%
41 | COc1ccc(-c2cc3c(=O)n(CC(=O)Nc4ccc(C(C)=O)cc4)ncn3n2)cc1 | 23.2%
42 | COc1ccc(NC(=O)c2ccc(NC(=O)CCS(=O)(=O)c3cccs3)cc2)cc1 | 19.6%
